Measurements published in the supplement of paper PMC11417369.
± gives the standard deviation of the averaged measurements. This is one part of the list.

Each sequence was assayed on PfAP2-EXP AP2 domain (GST-tagged) (assay: gcPBM binding intensity (ln(normalized median fluorescence intensity)); higher = stronger DNA binding).
Summary of the method: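 An Agilent 4 × 180k array carrying primer-extended double-stranded 36-bp intergenic genomic probes and negative controls received GST-tagged P. falciparum DNA-binding domains expressed in E. coli, about 25 μg on average, for 1 h. The binding buffer contained 1× PBS, 1% milk, 0.2 mg/ml BSA, 0.5% salmon testes DNA and 0.03% Triton X-100. Binding intensity is the top Masliner-normalised natural-log median intensity across replicate spots of either probe orientation, read after Alexa488 anti-GST antibody staining and a 488 nm scan.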

Q: With “CATATATATTTGTTCACACACACACCCAAAAAAAAA [CACACA_site2476]” as the sequence, how does the “gcPBM binding intensity (ln)” value read?
A: Its value is 8.7 ± 0.49.

Q: For “CATATGTTCATCATAGCACACATATATAAATTACAA [CACACA_site9177]”, which “gcPBM binding intensity (ln)” value is on record?
A: Its value is 8.35 ± 0.22.

Q: With “AAAAAAAAAAAAAGGTGTACATGCAAAATAAATTCT [XGTACX_site4592]” as the sequence, how does the “gcPBM binding intensity (ln)” value read?
A: The value was 9.14 ± 0.31.

Q: With “AAATAAATAAGAAACGCATGCATATATAATATATAA [TGCATGCA_site326]” as the sequence, how does the “gcPBM binding intensity (ln)” value read?
A: Its value is 9.67 ± 0.085.

Q: How did the “gcPBM binding intensity (ln)” value turn out when “CAAAGATATATAAACACACAAATATAACATATATAC [CACACA_site7395]” was run?
A: The value was 8.72 ± 0.49.

Q: “TATGAATATCTATACACACACATATATATACTCACT [CACACA_site1597]” was tested. Which “gcPBM binding intensity (ln)” value did it give?
A: Its value is 8.55 ± 0.36.

Q: TATGTATATTTTTTTGTGCACATATATATATATATA was tested. Which “gcPBM binding intensity (ln)” value did it give?
A: The value was 10.2 ± 0.26.

Q: For TACACTTGTAATTGCGTGCACGAAGGATATATATAT, which “gcPBM binding intensity (ln)” value is on record?
A: The value was 9.665 ± 0.092.

Q: How did the “gcPBM binding intensity (ln)” value turn out when “TATATTATTATATATTGTACTTTTTATATTTGCATT [XGTACX_site2978]” was run?
A: Its value is 8.62 ± 0.36.

Q: How did the “gcPBM binding intensity (ln)” value turn out when “TTTCTTATATAAGTGTACTAAAATATATATATGCAA [GTGCAC_negctrl_site546]” was run?
A: Its value is 8.63 ± 0.4.

Q: With “ATTTTTTTTTTAAAATGTACATGAGAAATTGTATAT [XGTACX_site425]” as the sequence, how does the “gcPBM binding intensity (ln)” value read?
A: Its value is 8.43 ± 0.37.

Q: With “TAAAAAAATAAATATACACACATATATAAATATGTA [CACACA_site6641]” as the sequence, how does the “gcPBM binding intensity (ln)” value read?
A: The value was 8.11 ± 0.28.

Q: For “TATATTATTAATTAAGCACACATTATTTTTATAATA [CACACA_site3982]”, which “gcPBM binding intensity (ln)” value is on record?
A: Its value is 8.22 ± 0.37.

Q: Which “gcPBM binding intensity (ln)” value does the source give for “TAACATAATATAGACACACACATGTACATATGCCAA [CACACA_site1842]” here?
A: The value was 8.65 ± 0.42.

Q: For “TTATAAAAAAAAATAACACACAGACATAAGAATAAA [CACACA_site9383]”, which “gcPBM binding intensity (ln)” value is on record?
A: Its value is 8.68 ± 0.2.

Q: Which “gcPBM binding intensity (ln)” value does the source give for “TATATTAAGTATAAGACACACATATAGTAATAGAAA [CACACA_site5176]” here?
A: The value was 8.62 ± 0.45.

Q: “TACTATATCGATACCAGTACAGATTTATAAATAATA [XGTACX_site7491]” was tested. Which “gcPBM binding intensity (ln)” value did it give?
A: The value was 8.47 ± 0.49.

Q: Which “gcPBM binding intensity (ln)” value does the source give for “AAATATAATAATAATTTAAGAATCTAATATTTTATA [CACACA_negctrl_site831]” here?
A: The value was 7.71 ± 0.41.

Q: “GGTATACATATTAAATGTACATATTTTAACAATAAG [XGTACX_site4868]” was tested. Which “gcPBM binding intensity (ln)” value did it give?
A: Its value is 8.51 ± 0.16.

Q: For “AAGTGTCAAAGTTACACACACAAACTTGTCATTTTT [CACACA_site837]”, which “gcPBM binding intensity (ln)” value is on record?
A: The value was 8.54 ± 0.35.

Q: For “ATATAACTTTTCTTAACACACAAAAAACAAAAATAA [CACACA_site2380]”, which “gcPBM binding intensity (ln)” value is on record?
A: Its value is 8.65 ± 0.5.

Q: With “ATATAATTATATAAATGTACTCATTCGTTATTTTGC [XGTACX_site6132]” as the sequence, how does the “gcPBM binding intensity (ln)” value read?
A: The value was 8.5 ± 0.41.

Q: Which “gcPBM binding intensity (ln)” value does the source give for “TTATTCAGAAAAAAAAAAAAAAAAAAAAAAAAAAAA [CACACA_negctrl_site1662]” here?
A: The value was 8.03 ± 0.34.

Q: With “GAGAAGACATTACACAGTACCCAGGAAATCTACGGA [XGTACX_site1993]” as the sequence, how does the “gcPBM binding intensity (ln)” value read?
A: Its value is 8.59 ± 0.54.

Q: How did the “gcPBM binding intensity (ln)” value turn out when “TTTTTTTTAATTGTGATACGTATATTATTTTTTGAT [TGCATGCA_negctrl_site318]” was run?
A: Its value is 8.45 ± 0.49.

Q: For “ATTTTTAATATTATTACACACACTAATAAAAAAAAA [CACACA_site8265]”, which “gcPBM binding intensity (ln)” value is on record?
A: Its value is 8.21 ± 0.33.

Q: Which “gcPBM binding intensity (ln)” value does the source give for “TATATATATGTGCAGTGTACTTTTTTTTTCTGTAAG [XGTACX_site3424]” here?
A: Its value is 8.76 ± 0.18.

Q: “ATATGTAAAGAAAAGTAAACACTAATTTTAAACAAT [CACACA_negctrl_site11]” was tested. Which “gcPBM binding intensity (ln)” value did it give?
A: The value was 8.62 ± 0.42.

Q: “ATATATATATATATATGTACTTAATATTTCTTATTT [XGTACX_site6206]” was tested. Which “gcPBM binding intensity (ln)” value did it give?
A: Its value is 10.1 ± 0.33.

Q: How did the “gcPBM binding intensity (ln)” value turn out when TGACGAAAAAAAAGGGTGCTTAGTATAACTTTAAAG was run?
A: The value was 8.71 ± 0.52.

Q: “TTCTTTTTTAAACACACACACACAAGAAAATATATA [CACACA_site5680]” was tested. Which “gcPBM binding intensity (ln)” value did it give?
A: Its value is 8.84 ± 0.57.

Q: “TGATTAAAAGAGGGAAAAAAAAAAAAAAAAAAAAAA [CACACA_negctrl_site896]” was tested. Which “gcPBM binding intensity (ln)” value did it give?
A: Its value is 8.06 ± 0.43.

Q: With “TCGACAAATGTATATACACACATTTGTAACATAAAT [CACACA_site560]” as the sequence, how does the “gcPBM binding intensity (ln)” value read?
A: Its value is 8.41 ± 0.42.

Q: With “TATAAAGGTGAAATTTGTACATAGTCATTTTTTAAT [XGTACX_site4811]” as the sequence, how does the “gcPBM binding intensity (ln)” value read?
A: Its value is 8.51 ± 0.46.

Q: How did the “gcPBM binding intensity (ln)” value turn out when “ATACAACTAATAAGTAGTACAATATACATATATTAT [XGTACX_site7086]” was run?
A: Its value is 8.45 ± 0.38.

Q: With “ATATGACTGTTCATTTGTACGTATAATTATATACGT [XGTACX_site3372]” as the sequence, how does the “gcPBM binding intensity (ln)” value read?
A: The value was 8.7 ± 0.32.

Q: How did the “gcPBM binding intensity (ln)” value turn out when “ATATATATATATATATATATATATATATATTATATA [XGTACX_negctrl_site48]” was run?
A: Its value is 9.94 ± 0.35.

Q: How did the “gcPBM binding intensity (ln)” value turn out when “AAATAATATATTCTATATAATAAATTATAAATATAA [GTGCAC_negctrl_site558]” was run?
A: Its value is 7.93 ± 0.51.

Q: With “AAAAAAAATGAAAGGTGTACACATACAAACATAGAA [XGTACX_site3517]” as the sequence, how does the “gcPBM binding intensity (ln)” value read?
A: The value was 9.29 ± 0.16.

Q: Which “gcPBM binding intensity (ln)” value does the source give for “TTTTTTTTTTTTTTTTATTTATATATATATATATAT [CACACA_negctrl_site582]” here?
A: The value was 9.98 ± 0.23.

Q: “GTGCAAAATATTTTTACACACAAATTTTTACAACAG [CACACA_site3357]” was tested. Which “gcPBM binding intensity (ln)” value did it give?
A: Its value is 8.61 ± 0.18.

Q: “AAAAATAAATAAGACACACACAAAAAAAAAAAAAAA [CACACA_site1432]” was tested. Which “gcPBM binding intensity (ln)” value did it give?
A: Its value is 8.14 ± 0.61.

Q: “TTAATTATATCAGGACGTACTAATATAAATATATAT [XGTACX_site8909]” was tested. Which “gcPBM binding intensity (ln)” value did it give?
A: Its value is 8.48 ± 0.45.

Q: “GGGATATATTATTATACACACATATATAAAAGCTTT [CACACA_site2445]” was tested. Which “gcPBM binding intensity (ln)” value did it give?
A: Its value is 8.54 ± 0.49.

Q: How did the “gcPBM binding intensity (ln)” value turn out when “AAATGAGATATAAAATGTACATATTGTAAGTAAACA [XGTACX_site1237]” was run?
A: The value was 8.79 ± 0.42.

Q: Which “gcPBM binding intensity (ln)” value does the source give for “AAATATTTTTAGAGTGCATGTAATAAAAATATAATG [TGCATGCA_site19]” here?
A: The value was 8.98 ± 0.26.

Q: “AAGATCGCATGAAATGAACACACATAAAAAAAATAT [CACACA_site9353]” was tested. Which “gcPBM binding intensity (ln)” value did it give?
A: Its value is 8.73 ± 0.53.

Q: Which “gcPBM binding intensity (ln)” value does the source give for CGTTGGTATTAAAAGGTGCAATGAAATAATATATTA here?
A: The value was 8.79 ± 0.16.

Q: With “TAAAATTTATAAACTACACACATATATATAGTAATA [CACACA_site3728]” as the sequence, how does the “gcPBM binding intensity (ln)” value read?
A: The value was 8.29 ± 0.45.

Q: With “AATGTAACAACTTTTTGTACTTAAGAAATAATAAAT [XGTACX_site3310]” as the sequence, how does the “gcPBM binding intensity (ln)” value read?
A: The value was 8.41 ± 0.32.

Q: Which “gcPBM binding intensity (ln)” value does the source give for “TAAAAAATTATATTCACACACATACCCATATATATA [CACACA_site4458]” here?
A: Its value is 8.6 ± 0.28.

Q: How did the “gcPBM binding intensity (ln)” value turn out when “TAATTTAGATATATAAAGAATTAAAGTTAACATTCT [CACACA_negctrl_site726]” was run?
A: Its value is 8.17 ± 0.54.

Q: For “TTAAGAAAAAAAAAAAGTACACACATATAATATATA [XGTACX_site6268]”, which “gcPBM binding intensity (ln)” value is on record?
A: Its value is 8.57 ± 0.44.

Q: “TTTTTCAGATCCTATATAGTATCATATAAATTCCAT [CACACA_negctrl_site56]” was tested. Which “gcPBM binding intensity (ln)” value did it give?
A: The value was 8.49 ± 0.26.

Q: Which “gcPBM binding intensity (ln)” value does the source give for “ATATATATATAATAAAGTACAAATTCTAAATGATAT [XGTACX_site570]” here?
A: The value was 9.52 ± 0.2.

Q: How did the “gcPBM binding intensity (ln)” value turn out when “TATCTTATGTCTGAAAGTACAAATTTTTTTCTACTT [XGTACX_site2208]” was run?
A: Its value is 8.38 ± 0.28.

Q: Which “gcPBM binding intensity (ln)” value does the source give for “ATTATCTATCGTTTTTGTACTTACACCTTAATACAA [XGTACX_site7337]” here?
A: Its value is 9.09 ± 0.42.
